Tests used:
His×6-YY1(1–226) = molecular target: T1, His×6-YY1(1–226) (human, UniProt P25490 1-226); assay: SPR; Biacore T200; His×6-YY1(1–226) immobilised by amine coupling on a CM5 chip; analytes at 62.5, 125, 250, 500 and 1000 nM; conditions: both partners purified
T1 construct: source: bacteria, recombinant, purified

His×6-YY1(wt) = molecular target: T2, His×6-YY1(wt) (human, UniProt P25490); assay: SPR; Biacore T200; about 12,000 RU of His×6-YY1(wt) immobilised by amine coupling on a CM5 chip; analytes at 62.5, 125, 250, 500 and 1000 nM; conditions: both partners purified
T2 construct: Yin Yang 1 (YY1), wild type; also called Yin Yang 1; source: bacteria, recombinant, purified

[1] = molecular target: the molecule itself; assay: native gel or EMSA; purified His×6 proteins on 10% native PAGE (Figure 3E); in Figure 3I YY1(ΔZF) (6.5 µg) with synthetic Cont, OPB or YPB peptide, 4 °C, 2 h

Binder	binding result (His×6-YY1(1–226))	binding result (His×6-YY1(wt))	binding result [1]
His×6-YY1([…]) (domain or fragment, human, source: bacteria, recombinant, purified) QEVILVQTREEVVGGDDSDGLRAEDGFEDQILIPVPAPAGGDDDYIEQTLVTVAAAGKSGGGGSSSSGGGRVKKGGGKKSGKKSYLSGGAGAAGGGGADP[about 20 residues left out here]	binds	binds	
His×6-YY1(ΔZF) (domain or fragment, human, YY1 without the zinc finger domain; source: recombinant, purified) MASGDTLYIATDGSEMPAEIVELHEIEVETIPVETIETTVVGEEEEEDDDDEDGGGGDHGGGGGHGHAGHHHHHHHHHHHPPMIALQPLVTDDPTQVHHHQEVILVQTREEVVGGDDSDGLRAEDGFEDQILIPVPAPAGGDDDYIEQTLVTVAAAGKSGGGGSSSSGG[about 100 residues left out here]PPGGIPGIDLSDPKQLAEFARMKPRKIKEDDAPRT			binds
His×6-YY1([…]) (domain or fragment, source: bacteria, recombinant, purified) not shown		binds	
